Test results reported in the supplement of paper PMC8728848.
The other results are listed elsewhere or left out.

Assays:
Assay in all cases: glycan array binding signal (z-score within array); higher = stronger binding
Conditions in all cases: glycan notation: IUPAC condensed, linker removed
[1] = biological target: Gal(b1-4)GlcNAc(b1-3)Gal(b1-4)GlcNAc(b1-2)Man(a1-3)[Gal(b1-4)GlcNAc(b1-3)Gal(b1-4)GlcNAc(b1-2)Man(a1-6)]Man(b1-4)GlcNAc(b1-4)[Fuc(a1-6)]GlcNAc
Procedure, shortened: (§1)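 Negative Z-scores can be read as non-binding. The Z-score is calculated within each array and then averaged across arrays of one protein sequence at different concentrations or buffers and across linkers. Arrays, 3228 in all, were curated from the Consortium for Functional Glycomics database and kept only where the protein sequence was available.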

[2] = biological target: Gal(b1-4)GlcNAc(b1-3)Gal(b1-4)GlcNAc(b1-2)[Gal(b1-4)GlcNAc(b1-3)Gal(b1-4)GlcNAc(b1-6)]Man(a1-6)[Gal(b1-4)GlcNAc(b1-3)Gal(b1-4)GlcNAc(b1-2)Man(a1-3)]Man(b1-4)GlcNAc(b1-4)GlcNAc
Procedure, shortened: as §1

[3] = biological target: Gal(b1-4)GlcNAc(b1-3)Gal(b1-4)GlcNAc(b1-2)[Gal(b1-4)GlcNAc(b1-3)Gal(b1-4)GlcNAc(b1-6)]Man(a1-6)[Gal(b1-4)GlcNAc(b1-3)Gal(b1-4)GlcNAc(b1-2)Man(a1-3)]Man(b1-4)GlcNAc(b1-4)[Fuc(a1-6)]GlcNAc
Procedure, shortened: as §1

[4] = biological target: Gal(b1-4)GlcNAc(b1-3)Gal(b1-4)GlcNAc(b1-3)Gal(b1-4)GlcNAc
Procedure, shortened: as §1

[5] = biological target: Gal(b1-4)GlcNAc(b1-3)Gal(b1-4)GlcNAc(b1-3)Gal(b1-4)GlcNAc(b1-2)Man(a1-3)[Gal(b1-4)GlcNAc(b1-3)Gal(b1-4)GlcNAc(b1-3)Gal(b1-4)GlcNAc(b1-2)Man(a1-6)]Man(b1-4)GlcNAc(b1-4)GlcNAc
Procedure, shortened: as §1

[6] = biological target: Gal(b1-4)GlcNAc(b1-3)Gal(b1-4)GlcNAc(b1-3)Gal(b1-4)GlcNAc(b1-2)Man(a1-3)[Gal(b1-4)GlcNAc(b1-3)Gal(b1-4)GlcNAc(b1-3)Gal(b1-4)GlcNAc(b1-2)Man(a1-6)]Man(b1-4)GlcNAc(b1-4)[Fuc(a1-6)]GlcNAc
Procedure, shortened: as §1

[7] = biological target: Gal(b1-4)GlcNAc(b1-3)Gal(b1-4)GlcNAc(b1-3)Gal(b1-4)GlcNAc(b1-2)[Gal(b1-4)GlcNAc(b1-3)Gal(b1-4)GlcNAc(b1-3)Gal(b1-4)GlcNAc(b1-6)]Man(a1-6)[Gal(b1-4)GlcNAc(b1-3)Gal(b1-4)GlcNAc(b1-3)Gal(b1-4)GlcNAc(b1-2)Man(a1-3)]Man(b1-4)GlcNAc(b1-4)[Fuc(a1-6)]GlcNAc
Procedure, shortened: as §1

[8] = biological target: Gal(b1-4)GlcNAc(b1-3)Gal(b1-4)GlcNAc(b1-3)Gal(b1-4)GlcNAc(b1-3)Gal(b1-4)GlcNAc(b1-2)Man(a1-3)[Gal(b1-4)GlcNAc(b1-3)Gal(b1-4)GlcNAc(b1-3)Gal(b1-4)GlcNAc(b1-3)Gal(b1-4)GlcNAc(b1-2)Man(a1-6)]Man(b1-4)GlcNAc(b1-4)GlcNAc
Procedure, shortened: as §1

[9] = biological target: Gal(b1-4)GlcNAc(b1-3)Gal(b1-4)GlcNAc(b1-3)Gal(b1-4)GlcNAc(b1-3)Gal(b1-4)GlcNAc(b1-2)Man(a1-3)[Gal(b1-4)GlcNAc(b1-3)Gal(b1-4)GlcNAc(b1-3)Gal(b1-4)GlcNAc(b1-3)Gal(b1-4)GlcNAc(b1-2)Man(a1-6)]Man(b1-4)GlcNAc(b1-4)[Fuc(a1-6)]GlcNAc
Procedure, shortened: as §1

[10] = biological target: Gal(b1-4)GlcNAc(b1-3)Gal(b1-4)GlcNAc(b1-3)Gal(b1-4)GlcNAc(b1-3)Gal(b1-4)GlcNAc(b1-2)[Gal(b1-4)GlcNAc(b1-3)Gal(b1-4)GlcNAc(b1-3)Gal(b1-4)GlcNAc(b1-3)Gal(b1-4)GlcNAc(b1-6)]Man(a1-6)[Gal(b1-4)GlcNAc(b1-3)Gal(b1-4)GlcNAc(b1-3)Gal(b1-4)GlcNAc(b1-3)Gal(b1-4)GlcNAc(b1-2)Man(a1-3)]Man(b1-4)GlcNAc(b1-4)[Fuc(a1-6)]GlcNAc
Procedure, shortened: as §1

[11] = biological target: Gal(b1-4)GlcNAc(b1-3)Gal(b1-4)GlcNAc(b1-3)Gal(b1-4)GlcNAc(b1-3)Gal(b1-4)GlcNAc(b1-3)Gal(b1-4)GlcNAc(b1-2)Man(a1-3)[Gal(b1-4)GlcNAc(b1-3)Gal(b1-4)GlcNAc(b1-3)Gal(b1-4)GlcNAc(b1-3)Gal(b1-4)GlcNAc(b1-3)Gal(b1-4)GlcNAc(b1-2)Man(a1-6)]Man(b1-4)GlcNAc(b1-4)GlcNAc
Procedure, shortened: as §1

[12] = biological target: Gal(b1-4)GlcNAc(b1-3)Gal(b1-4)GlcNAc(b1-3)Gal(b1-4)GlcNAc(b1-3)Gal(b1-4)GlcNAc(b1-3)Gal(b1-4)GlcNAc(b1-2)Man(a1-3)[Gal(b1-4)GlcNAc(b1-3)Gal(b1-4)GlcNAc(b1-3)Gal(b1-4)GlcNAc(b1-3)Gal(b1-4)GlcNAc(b1-3)Gal(b1-4)GlcNAc(b1-2)Man(a1-6)]Man(b1-4)GlcNAc(b1-4)[Fuc(a1-6)]GlcNAc
Procedure, shortened: as §1

[13] = biological target: Gal(b1-4)GlcNAc(b1-3)Gal(b1-4)GlcNAc(b1-3)Gal(b1-4)GlcNAc(b1-3)Gal(b1-4)GlcNAc(b1-3)Gal(b1-4)GlcNAc(b1-2)[Gal(b1-4)GlcNAc(b1-3)Gal(b1-4)GlcNAc(b1-3)Gal(b1-4)GlcNAc(b1-3)Gal(b1-4)GlcNAc(b1-3)Gal(b1-4)GlcNAc(b1-6)]Man(a1-6)[Gal(b1-4)GlcNAc(b1-3)Gal(b1-4)GlcNAc(b1-3)Gal(b1-4)GlcNAc(b1-3)Gal(b1-4)GlcNAc(b1-3)Gal(b1-4)GlcNAc(b1-2)Man(a1-3)]Man(b1-4)GlcNAc(b1-4)[Fuc(a1-6)]GlcNAc
Procedure, shortened: as §1

[14] = biological target: Gal(b1-4)GlcNAc(b1-3)Gal(b1-4)GlcNAc(b1-3)Gal(b1-4)GlcNAc(b1-3)Gal(b1-4)GlcNAc(b1-3)Gal(b1-4)GlcNAc(b1-3)Gal(b1-4)GlcNAc(b1-2)Man(a1-3)[Gal(b1-4)GlcNAc(b1-3)Gal(b1-4)GlcNAc(b1-3)Gal(b1-4)GlcNAc(b1-3)Gal(b1-4)GlcNAc(b1-3)Gal(b1-4)GlcNAc(b1-3)Gal(b1-4)GlcNAc(b1-2)Man(a1-6)]Man(b1-4)GlcNAc(b1-4)GlcNAc
Procedure, shortened: as §1

[15] = biological target: Gal(b1-4)GlcNAc(b1-3)Gal(b1-4)GlcNAc(b1-3)GalNAc
Procedure, shortened: as §1

[16] = biological target: Gal(b1-4)GlcNAc(b1-3)Gal(b1-4)GlcNAc(b1-3)[Gal(b1-4)GlcNAc(b1-3)Gal(b1-4)GlcNAc(b1-6)]GalNAc
Procedure, shortened: as §1

[17] = biological target: Gal(b1-4)GlcNAc(b1-3)Gal(b1-4)GlcNAc(b1-6)[Gal(b1-3)]GalNAc
Procedure, shortened: as §1

[18] = biological target: Gal(b1-4)GlcNAc(b1-3)Gal(b1-4)[Fuc(a1-3)]GlcNAc(b1-3)Gal(b1-4)[Fuc(a1-3)]GlcNAc
Procedure, shortened: as §1

[19] = biological target: Gal(b1-4)GlcNAc(b1-3)GalNAc
Procedure, shortened: as §1

[20] = biological target: Gal(b1-4)GlcNAc(b1-3)[Fuc(a1-3)GlcNAc(b1-6)]Gal(b1-4)Glc
Procedure, shortened: as §1

[21] = biological target: Gal(b1-4)GlcNAc(b1-3)[Gal(b1-4)GlcNAc(b1-6)]Gal(b1-4)GlcNAc
Procedure, shortened: as §1

[22] = biological target: Gal(b1-4)GlcNAc(b1-3)[GlcNAc(b1-6)]Gal(b1-4)GlcNAc
Procedure, shortened: as §1

B1: InvD YPIII (Yersinia pseudotuberculosis), B1JSC0 (protein)
chain: MIKYFSFFKKPEPIVGILPNRQSHHILPTHIRRVAWGTLLLQLFIPLSVSFSPAIAAMKASKADTMVSYSSTEPYVLGSGETVAMVAKKYGITVDELKKINIYRTFSRPFTALTTGDEIDIPRKASPFSVDNNKDNRLSVENTLAGHAVAGATALSNGDVAKSGERMVRSAASNEFNNSAQQWLSQFGTARVQLNINDDFHLDGSAADVLIPLYDNEKSILFTQLGARNKDSRNTVNMGAGVRTFQGNWMYGANTFFDNDLTGKNRRIGVGAEAWTDYLKLSANNYFGITDWHQSRDFIDYNERPANGYDLRAEAYLPSYPQLGGKAMYEKYRGDDVALFGKDNRQKNPHAITAGVNYTPIPLVTIGAEHRAGKGGQNDSNINFQLNYRLGETWQSHIDPSAVAASRTLAGSRYDLVERNNHIVLDYQKQNLVRLSLPDSLAGDPFSQLSVTAQVTATHGLERIDWQSAELMAAGGVLKQTSKNGLEITLPEYQMNRTGGNSYILNAIAYDTQGNASSQASMLITVNAQKINIANSTLVAVPINIEANNSDTSVVTLTLKDDNNIPVTGQDVTFLSPLGTLSAMTDSGNGVYTATLTAGTVSGTTAVSSNINGSALDMTPATVTLNGNSGELSITHSMLVAAPVNIEANGSDTSVVTLTLRDSNNNPVTGQTVTFAGTLGTLGAVTEGSSGVYTATLTAGIMVGTSSITASVNSTALGVTPATVTLNGDSGNLSTTNSTLVAAPVNIEANSSDTSVVTLTLRDNNNNPVTGQTVVFTSTLGTLGNVTEQASGVYTATLTAGTVSGVASLSVSVGGNALGVTPATVTLNGDSGNLSTTNSTLVAAPVNIEANSSDTSVVTLTLRDNNNNPVTGQTVNFAGTLGTLGTVSEGSSGVYTTTLTAGTVAGVASLSVNVGGNALGVTPATVTLNGNSGNLSATNSTLVAAPVNIEANSSDTSVVTLTLRDNNNNPVTGQTVAFTSTLGTLGNVTEQASGVYTATLTAGTVSGVASLSVSVNSNALGVTPATVTLNGDSGNLSTTNSTLVAAPVNIEANSSDTSVVTLTLRDNNNNPVTGQTVAFTSTLGTLGNVTEQASGLYTATLTAGTVSGVASLSVNVGGNALGVTPATVTLNGDSGNLSATNSTLVAAPVNIEANSSDTSVVTLTLRDNNNNPVTGQTVAFTSTLGTLGNVTEQASGLYTATLTAGTVSGVASLSVNVGGTALGVTPATVTLNGDSGNLSTTNSTLVAAPVNIEANSSDTSVVTLTLRDNNNNPVTGQTVAFTSTLGTLGNVTEQASGLYTATLTAGTVSGVASLSVSVNSTALGVTPATVTLNGDSGNLSTTNSTLVAAPVNIEANSSDTSVVTLTLRDNNNNPVTGQTVAFTSTLGTLGNVTEQASGVYTATLTAGTVAGVASLSVNVGGNALGVTPATVTLNGDSGNLSTTNSTLVAAPVNIEANSSDTSVVTLTLRDNNNNPVTGQTVAFTSTLGTLGNVTEQASGVYTATLTAGTVSGVASLSVSVGSSALGVTPATVTLNGDSGNLSTTNSTLVAAPVNIEANNSDTSVVTLTLRDNNNNPVTGQTVAFTSTLGTLGNVTEQASGVYTATLTAGTVSGVASLSVSVNSNALGVTPATVTLNGDSGNLSTTNSTLVAAPVNIEANSSDTSVVTLTLRDNNNNPVTGQTVVFTSTLGTLGNVTEQASGLYTATLTAGTVSGVASLSVSVGGNALGVTGNITLAPGALDAARSILAVNKPSINADDRIGSTITFTAQDAQGNAITGLDIAFMTDLENSQIMTLVDHNDGTYTANINGTQTGIANIAVQSSGATIAGLAATMVTITPGAWNTTQATPVMTVALPITTCQSSSGVYKRYYIGIVTHELYDNYGNEISGILTYNLGAGRYTTVTSQNSSVSGSNGLTRRSNSPVSHFILTSDAYTSQAACYAERIANVNVTITVTAITDDFKTSAVNKVFILGTGSN
[1]
  glycan array binding signal (z-score): 2.01
[2]
  glycan array binding signal (z-score): 0.653
[3]
  glycan array binding signal (z-score): 1.88
[4]
  glycan array binding signal (z-score): -0.253
[5]
  glycan array binding signal (z-score): 1.59
[6]
  glycan array binding signal (z-score): 0.402
[7]
  glycan array binding signal (z-score): 1.62
[8]
  glycan array binding signal (z-score): 0.103
[9]
  glycan array binding signal (z-score): 0.231
[10]
  glycan array binding signal (z-score): 0.748
[11]
  glycan array binding signal (z-score): -0.134
[12]
  glycan array binding signal (z-score): -0.094
[13]
  glycan array binding signal (z-score): 0.512
[14]
  glycan array binding signal (z-score): 0.268
[15]
  glycan array binding signal (z-score): 1.27
[16]
  glycan array binding signal (z-score): 1.71
[17]
  glycan array binding signal (z-score): 1.51
[18]
  glycan array binding signal (z-score): -0.275
[19]
  glycan array binding signal (z-score): -0.218
[20]
  glycan array binding signal (z-score): -0.177
[21]
  glycan array binding signal (z-score): -0.248
[22]
  glycan array binding signal (z-score): 0.284
